Test results from PubChem BioAssay AID686970 (National Center for Advancing Translational Sciences (NCATS), 2013).
In all, about 360,000 compounds went through this assay and about 6,000 (1.7%) were called active. The shares of active, inactive and inconclusive entries below differ from those in the screen. Calls come from the whole dose curve; as a rule, active = well fitted cell-killing curve with a large enough effect; inconclusive = small, poorly fitted or top-dose-only effect, or effect the other way; inactive = flat fitted curve, though single readings scatter. Potencies of inconclusive entries are left out as doubtful fits.

Assay: qHTS for induction of synthetic lethality in tumor cells producing 2HG: qHTS for the HT-1080-NT fibrosarcoma cell line;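 note: NT is the 2HG producing partner of a matched IDH1 knockdown line; nearly all actives have a fitted effect of over 55% in size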;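 for activity, negative = less viability: 0% = DMSO-treated cells and -100% = media-only wells without cells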
Conditions: HT-1080-NT fibrosarcoma viability, CellTiter-Glo ATP luminescence, 48 h; activity, negative = less viability: at 46.1 µM (top of the series) unless noted
Summary of the method: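 HT-1080-NT fibrosarcoma cells (2HG-overproducing), 750 cells/well in RPMI with 5% FBS, dosed after 2 h and incubated 48 h at 37C. CellTiter-Glo luminescence normalized to DMSO and no-cell wells; concentration-response curves fitted and classed.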
Potency is the fitted concentration of half-maximal effect; tags give direction and shape of the fitted curve.

SMILES	activity, negative = less viability	Potency
Cc1ccc(NC2CCCN(C(=O)CSc3ccccn3)C2)cc1C (centres undefined)	inactive: 1.16%	
O=C(Cc1cccc(C(F)(F)F)c1)OCC(=O)N1CCN(S(=O)(=O)c2ccc(Cl)cc2)CC1		inconclusive [rising, partial curve, poor fit]
O=C(Nc1ccc2c(c1)OCO2)C1Cc2c(-c3ccc4c(c3)OCO4)ccnc2O1 (centres undefined)		inconclusive [cytotoxic, partial curve]
O=C(Cn1nc(Cl)nc1Cl)c1ccc2c(c1)OCCO2	inactive: -9.52%	
CCOc1cc(C(=O)NN=C2CCCC2)cc(OCC)c1OCC		inconclusive [cytotoxic, single point]
CN(Cc1c(C(=O)N/N=C/c2ccc(O)cc2)nnn1-c1nonc1N)C1CCCCC1		inconclusive [cytotoxic, single point]
Cc1c(C(=O)N2CCOCC2)c(S(=O)(=O)Nc2ccc(OC(F)(F)F)cc2)c(C)n1C		inconclusive [rising, partial curve]
COc1ccccc1C1CN(c2ccccc2)N=C1c1cccs1 (centres undefined)		inconclusive [cytotoxic, single point]
N#Cc1nc(-c2ccc(OCc3ccc(Cl)cc3)cc2)oc1N1CCC(C(N)=O)CC1	inactive: -1.36%	
CC(C)C(=O)N1CCN(c2ccc(NC(=O)COc3ccccc3[N+](=O)[O-])cc2)CC1		inconclusive [cytotoxic, partial curve]
Cc1nc2ccccc2c(=O)n1/N=C/c1c(O)ccc2ccccc12		inconclusive [cytotoxic, single point]
CCN(CC)c1ccc(/C=C(/C#N)c2nc3ccccc3[nH]2)c(OC(C)C)c1		inconclusive [cytotoxic, partial curve, poor fit]
COc1ccc(Nc2nc(-c3ccccc3)nc3ccccc23)cc1		inconclusive [cytotoxic, single point]
Cc1onc(-c2ccccc2)c1C(=O)N1CCc2ccccc21	inactive: 3.39%	
CCS(=O)(=O)c1ccc2c(c1)N(S(C)(=O)=O)CC(C(=O)NCc1ccccc1OC)O2 (centres undefined)		inconclusive [cytotoxic, single point]
COc1ccccc1C(=O)NNC(=O)c1ccc(Br)cc1	inactive: 4.1%	
O=C(O)/C=C/C(=O)Nc1cccnc1		inconclusive [rising, single point]
COc1ccc(S(=O)(=O)Nc2cccc(-c3ccc4nncn4n3)c2)cc1F		active: 4.61 µM
O=C(Nc1ccccc1C(=O)Nc1ccccc1C(=O)O)c1ccccc1		inconclusive [cytotoxic, partial curve]
CC(NCC(=O)NCCc1ccc(S(N)(=O)=O)cc1)c1ccc(F)cc1 (centres undefined)	inactive: -2.48%	
CCc1cc(-c2n[nH]c(C)c2-c2nc3ccccc3n2C)c(O)c(CN2CCN(C)CC2)c1O		inconclusive [cytotoxic, single point]
COc1ccc(CNC(=O)c2cccc(-c3ccc(C)c4ccccc34)n2)cc1		inconclusive [cytotoxic, single point]

SMILES	activity, negative = less viability	Potency
COc1ccc(/C=N/NC(=O)c2ccc(CSc3nc(C)cc(C)n3)cc2)c(OC)c1OC		inconclusive [cytotoxic, single point]
CCOc1ccc(OCCNC(=O)C(NC(=O)c2c(F)cccc2F)C(C)C)cc1 (centres undefined)	inactive: -0.36%	
CN1/C(=C/c2cc[n+](C)c3ccccc23)C=Cc2ccccc21		active: 7.31 µM
COCCCN(CC(=O)Nc1ccc(F)cc1)S(=O)(=O)c1cccs1	inactive: -1.38%	
CCCCN1C(=O)C(O)(CC(=O)c2ccccc2OC)c2ccccc21 (centres undefined)	inactive: 13.8%	
CCOc1cccc(-c2nn(-c3ccccc3)cc2/C=C(/C#N)C(=O)NCCCn2ccnc2)c1		active: 25.9 µM
CC(C)(C)C(=O)Nc1cc(NC(=O)C(C)(C)C)cc(C(=O)NNC(=O)c2ccncc2)c1	inactive: -20%	
O=C(Nc1ccccc1N1CCOCC1)c1cc(-c2ccco2)nc2ccccc12		inconclusive [cytotoxic, partial curve]
COc1ccccc1N1CCN(C(=O)c2sc3nc(C)nc(N4CCN(c5ccccn5)CC4)c3c2C)CC1	inconclusive: -30.4% [cytotoxic]	
O=C(/C=C/c1ccccc1Cl)N1CCOCC1	inactive: 4.18%	
C(=N\N1CCN(c2ccccn2)CC1)/c1ccccn1		inconclusive [rising, partial curve, poor fit]
CNc1ncc(C(=O)c2ccc(Br)cc2)s1	inactive: -15.4%	
Cc1ccc(N/C(N)=N/c2nc(CSc3nnc(C)s3)cc(=O)[nH]2)c(C)c1		active: 2.59 µM
COc1ccc(Cl)cc1NC(=O)CN(C)C(=O)c1cc(-c2cccs2)nn1-c1ccccc1		inconclusive [cytotoxic, single point]
O=C1NC[C@H](Cc2ccccc2)N(C[C@H]2CCCN2C[C@H](Cc2ccccc2)N2C[C@H](Cc3ccccc3)N(CC3CCCCC3)C(=O)C2=O)C1=O		inconclusive [cytotoxic, single point]
CCCNC(=O)C1(C)CCN1C(=O)c1ccccc1CCc1ccccc1 (centres undefined)		inconclusive [rising, full curve, poor fit]
CCOC(=O)[C@]12CCC=C1N(Cc1ccc(Cl)cc1Cl)C(=O)[C@H](CC(=O)NCc1ccccc1)C2		inconclusive [cytotoxic, single point]
CC1C(=O)Nc2ccc(S(=O)(=O)NCCc3ccc(Cl)cc3)cc2NC1=O (centres undefined)	inactive: -21.8%	
COCc1cc(C)nc(OCC(=O)N/N=C/c2cc(C)n(-c3c(C)cccc3C)c2C)c1C#N		inconclusive [cytotoxic, partial curve]
O=C(N/N=C/c1ccc(O)cc1)c1[nH]c2ccc(Br)cc2c1-c1ccccc1		active: 4.61 µM
CCCCC(=O)NNC(=S)NC(=O)C(c1ccccc1)c1ccccc1		inconclusive [cytotoxic, partial curve]
Cc1ccc(C)c(S(=O)(=O)N2CCN(C(=O)CCNS(=O)(=O)c3ccccc3)CC2)c1	inactive: -2.59%	
